# Results published in the supplement of paper PMC10037445.
# Whole data set: some 2,900 compounds, median “NF-kB SEAP reporter activity, fold change vs agonist alone” near 0.99, cut for the highest 2% near 2.6. This is one part of the list.
# Experiments:
# RAW-Dual [1] = test: NF-kB SEAP reporter activity, fold change vs agonist alone; higher = enhanced NF-kB activity; conditions: library stock concentration (final ~1000-fold dilution): 10 mM
# Summary of the method: (§1)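 After 50 nL of library stock was delivered by pin tool to RAW-Dual macrophages (50,000 cells/well, DMEM, 384-well plates), a PRR agonist was added 1 h later and the plates were kept at 37 °C, 5% CO2. Twenty hours later, IRF was read from supernatant by QuantiLuc luminescence and NF-κB by QuantiBlue absorbance at 620 nm. Reporter activity is stated as fold change over agonist-alone wells. Wells with IncuCyte confluency under 70% of agonist controls in both mask sets were counted as cytotoxic.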
# RAW-Dual [2] = test: NF-kB SEAP reporter activity, fold change vs agonist alone; cytotoxicity flag (confluency mask): not cytotoxic; higher = enhanced NF-kB activity
# Summary of the method: as §1
# RAW-Dual [3] = test: NF-kB SEAP reporter activity, fold change vs agonist alone; cytotoxicity flag (confluency mask): cytotoxic (confluency <70% of control); higher = enhanced NF-kB activity
# Summary of the method: as §1
# [4] = cytotoxicity flag (confluency mask): not cytotoxic, agonist: Imiquimod (TLR7) […]
# [5] = cytotoxicity flag (confluency mask): not cytotoxic, agonist: MPLA (TLR4) […]
# [6] = agonist: ODN 1826 (TLR9) 0.5 ug/mL
# [7] = agonist: Pam2CSK4 (TLR2/6) 0.1 ug/mL
# [8] = agonist: Pam3CSK4 (TLR2/1) 0.1 ug/mL
structure (smiles),measurement,setting,value
Cc1cccc(Nc2ccccc2C(=O)O)c1C,NF-kB SEAP reporter activity,RAW-Dual [1]; [4],0.897
same,NF-kB SEAP reporter activity,RAW-Dual [1]; [5],0.985
Cc1cccc(Nc2ccccc2C(=O)O)c1C (library stock concentration (final ~1000-fold dilution): 10 mM),NF-kB SEAP reporter activity,RAW-Dual [2]; agonist: LPS (TLR4) 0.1 ug/mL,1.19
same,NF-kB SEAP reporter activity,RAW-Dual [2]; [6],0.945
same,NF-kB SEAP reporter activity,RAW-Dual [2]; [7],1.13
same,NF-kB SEAP reporter activity,RAW-Dual [2]; [8],1.04
O=C(Nc1cc(C(F)(F)F)ccc1N1CCN(Cc2ccccn2)CC1)c1ccc(-c2ccncc2)o1,NF-kB SEAP reporter activity,RAW-Dual [1]; [4],0.609
same,NF-kB SEAP reporter activity,RAW-Dual [1]; [5],1.03
O=C(Nc1cc(C(F)(F)F)ccc1N1CCN(Cc2ccccn2)CC1)c1ccc(-c2ccncc2)o1 (library stock concentration (final ~1000-fold dilution): 10 mM),NF-kB SEAP reporter activity,RAW-Dual [2]; agonist: LPS (TLR4) 0.1 ug/mL,1.25
same,NF-kB SEAP reporter activity,RAW-Dual [2]; [6],0.731
same,NF-kB SEAP reporter activity,RAW-Dual [2]; [7],0.657
same,NF-kB SEAP reporter activity,RAW-Dual [2]; [8],0.818
Cc1cc(C)c(CNC(=O)c2cc(-c3ccc(N4CCN(C)CC4)nc3)cc3c2c(C)cn3C(C)C)c(=O)[nH]1,NF-kB SEAP reporter activity,RAW-Dual [1]; [4],1.17
same,NF-kB SEAP reporter activity,RAW-Dual [1]; [5],1.23
Cc1cc(C)c(CNC(=O)c2cc(-c3ccc(N4CCN(C)CC4)nc3)cc3c2c(C)cn3C(C)C)c(=O)[nH]1 (library stock concentration (final ~1000-fold dilution): 10 mM),NF-kB SEAP reporter activity,RAW-Dual [2]; agonist: LPS (TLR4) 0.1 ug/mL,1.01
same,NF-kB SEAP reporter activity,RAW-Dual [2]; [6],0.192
same,NF-kB SEAP reporter activity,RAW-Dual [2]; [7],0.694
same,NF-kB SEAP reporter activity,RAW-Dual [2]; [8],0.675
O=C(CNc1ccc2ccccc2c1)N/N=C/c1cc(Br)c(O)c(Br)c1O,NF-kB SEAP reporter activity,RAW-Dual [1]; [4],0.809
same,NF-kB SEAP reporter activity,RAW-Dual [1]; [5],1.09
O=C(CNc1ccc2ccccc2c1)N/N=C/c1cc(Br)c(O)c(Br)c1O (library stock concentration (final ~1000-fold dilution): 10 mM),NF-kB SEAP reporter activity,RAW-Dual [2]; agonist: LPS (TLR4) 0.1 ug/mL,1.02
same,NF-kB SEAP reporter activity,RAW-Dual [2]; [6],0.608
same,NF-kB SEAP reporter activity,RAW-Dual [2]; [7],0.591
same,NF-kB SEAP reporter activity,RAW-Dual [2]; [8],0.439
CC(C)=CCCC(C)(OC1OC(CO)C(O)C(O)C1O)C1CCC2(C)C1C(O)CC1C3(C)CCC(O)C(C)(C)C3C(OC3OC(CO)C(O)C(O)C3OC3OCC(O)C(O)C3O)CC12C (stereo not drawn),NF-kB SEAP reporter activity,RAW-Dual [1]; [4],0.818
same,NF-kB SEAP reporter activity,RAW-Dual [1]; [5],0.958
CC(C)=CCCC(C)(OC1OC(CO)C(O)C(O)C1O)C1CCC2(C)C1C(O)CC1C3(C)CCC(O)C(C)(C)C3C(OC3OC(CO)C(O)C(O)C3OC3OCC(O)C(O)C3O)CC12C (stereo not drawn) (library stock concentration (final ~1000-fold dilution): 10 mM),NF-kB SEAP reporter activity,RAW-Dual [2]; agonist: LPS (TLR4) 0.1 ug/mL,0.93
same,NF-kB SEAP reporter activity,RAW-Dual [2]; [6],1.02
same,NF-kB SEAP reporter activity,RAW-Dual [2]; [7],0.792
same,NF-kB SEAP reporter activity,RAW-Dual [2]; [8],0.975
CCN(CC)Cc1ccc2cc(COC(=O)Nc3ccc(C(=O)NO)cc3)ccc2c1.Cl.O,NF-kB SEAP reporter activity,RAW-Dual [1]; [4],0.805
same,NF-kB SEAP reporter activity,RAW-Dual [1]; [5],1.17
CCN(CC)Cc1ccc2cc(COC(=O)Nc3ccc(C(=O)NO)cc3)ccc2c1.Cl.O (library stock concentration (final ~1000-fold dilution): 10 mM),NF-kB SEAP reporter activity,RAW-Dual [2]; agonist: LPS (TLR4) 0.1 ug/mL,7.02
same,NF-kB SEAP reporter activity,RAW-Dual [2]; [6],0.922
same,NF-kB SEAP reporter activity,RAW-Dual [2]; [7],1.87
same,NF-kB SEAP reporter activity,RAW-Dual [2]; [8],1.04
O=C(C(Cc1cccc(C(F)(F)F)c1)NS(=O)(=O)c1cc(F)c2c(c1)CCNC2)N1CCCC1 (stereo not drawn) (library stock concentration (final ~1000-fold dilution): 10 mM),NF-kB SEAP reporter activity,RAW-Dual [2]; agonist: LPS (TLR4) 0.1 ug/mL,1.01
same,NF-kB SEAP reporter activity,RAW-Dual [2]; [6],0.731
same,NF-kB SEAP reporter activity,RAW-Dual [2]; [7],0.96
same,NF-kB SEAP reporter activity,RAW-Dual [2]; [8],0.795
O=C(C(Cc1cccc(C(F)(F)F)c1)NS(=O)(=O)c1cc(F)c2c(c1)CCNC2)N1CCCC1 (stereo not drawn),NF-kB SEAP reporter activity,RAW-Dual [1]; [4],0.965
same,NF-kB SEAP reporter activity,RAW-Dual [1]; [5],1.07
CNC(=O)C(NC(=O)C(CC(C)C)C(O)C(=O)NO)C(C)(C)C (stereo not drawn),NF-kB SEAP reporter activity,RAW-Dual [1]; [4],1.08
same,NF-kB SEAP reporter activity,RAW-Dual [1]; [5],1.38
CNC(=O)C(NC(=O)C(CC(C)C)C(O)C(=O)NO)C(C)(C)C (stereo not drawn) (library stock concentration (final ~1000-fold dilution): 10 mM),NF-kB SEAP reporter activity,RAW-Dual [2]; agonist: LPS (TLR4) 0.1 ug/mL,1.09
same,NF-kB SEAP reporter activity,RAW-Dual [2]; [6],1.01
same,NF-kB SEAP reporter activity,RAW-Dual [2]; [7],1.04
same,NF-kB SEAP reporter activity,RAW-Dual [2]; [8],1.01
CCOC(=O)C(CCc1ccccc1)NC(C)C(=O)N1C(=O)N(C)CC1C(=O)O.Cl (stereo not drawn) (library stock concentration (final ~1000-fold dilution): 10 mM),NF-kB SEAP reporter activity,RAW-Dual [2]; agonist: LPS (TLR4) 0.1 ug/mL,1.2
same,NF-kB SEAP reporter activity,RAW-Dual [2]; [6],0.98
same,NF-kB SEAP reporter activity,RAW-Dual [2]; [7],0.83
same,NF-kB SEAP reporter activity,RAW-Dual [2]; [8],1.03
CCOC(=O)C(CCc1ccccc1)NC(C)C(=O)N1C(=O)N(C)CC1C(=O)O.Cl (stereo not drawn),NF-kB SEAP reporter activity,RAW-Dual [1]; [4],0.962
same,NF-kB SEAP reporter activity,RAW-Dual [1]; [5],0.927
CC(C)NCC(O)COc1cccc2[nH]c3ccccc3c12 (stereo not drawn),NF-kB SEAP reporter activity,RAW-Dual [1]; [4],0.895
same,NF-kB SEAP reporter activity,RAW-Dual [1]; [5],0.982
CC(C)NCC(O)COc1cccc2[nH]c3ccccc3c12 (stereo not drawn) (library stock concentration (final ~1000-fold dilution): 10 mM),NF-kB SEAP reporter activity,RAW-Dual [2]; agonist: LPS (TLR4) 0.1 ug/mL,1.12
same,NF-kB SEAP reporter activity,RAW-Dual [2]; [6],0.921
same,NF-kB SEAP reporter activity,RAW-Dual [2]; [7],0.951
same,NF-kB SEAP reporter activity,RAW-Dual [2]; [8],1.02
Cn1c(=O)cc(N2CCCC(N)C2)n(Cc2cc(F)ccc2C#N)c1=O (stereo not drawn) (library stock concentration (final ~1000-fold dilution): 10 mM),NF-kB SEAP reporter activity,RAW-Dual [2]; agonist: LPS (TLR4) 0.1 ug/mL,0.833
same,NF-kB SEAP reporter activity,RAW-Dual [2]; [6],0.842
same,NF-kB SEAP reporter activity,RAW-Dual [2]; [7],0.83
same,NF-kB SEAP reporter activity,RAW-Dual [2]; [8],1.03
Cn1c(=O)cc(N2CCCC(N)C2)n(Cc2cc(F)ccc2C#N)c1=O (stereo not drawn),NF-kB SEAP reporter activity,RAW-Dual [1]; [4],0.999
same,NF-kB SEAP reporter activity,RAW-Dual [1]; [5],0.869
CC(=O)/C(C)=N/O (library stock concentration (final ~1000-fold dilution): 10 mM),NF-kB SEAP reporter activity,RAW-Dual [2]; agonist: LPS (TLR4) 0.1 ug/mL,0.735
same,NF-kB SEAP reporter activity,RAW-Dual [2]; [6],0.976
same,NF-kB SEAP reporter activity,RAW-Dual [2]; [7],0.997
same,NF-kB SEAP reporter activity,RAW-Dual [2]; [8],1.05
CC(=O)/C(C)=N/O,NF-kB SEAP reporter activity,RAW-Dual [1]; [4],0.917
same,NF-kB SEAP reporter activity,RAW-Dual [1]; [5],1.03
Cl.Cl.O=c1cc(CN2CCOCC2)occ1OCCCCCSc1ccnc2cc(C(F)(F)F)ccc12,NF-kB SEAP reporter activity,"RAW-Dual [1]; cytotoxicity flag (confluency mask): cytotoxic (confluency <70% of control), agonist: Imiquimod (TLR7) […]",0.953
same,NF-kB SEAP reporter activity,"RAW-Dual [1]; cytotoxicity flag (confluency mask): cytotoxic (confluency <70% of control), agonist: MPLA (TLR4) […]",0.895
Cl.Cl.O=c1cc(CN2CCOCC2)occ1OCCCCCSc1ccnc2cc(C(F)(F)F)ccc12 (library stock concentration (final ~1000-fold dilution): 10 mM),NF-kB SEAP reporter activity,RAW-Dual [3]; agonist: LPS (TLR4) 0.1 ug/mL,0.81
same,NF-kB SEAP reporter activity,RAW-Dual [3]; [6],0.603
same,NF-kB SEAP reporter activity,RAW-Dual [3]; [7],0.59
same,NF-kB SEAP reporter activity,RAW-Dual [3]; [8],0.529
